Experimental data: the supplement of paper PMC10037445
In all, about 2,900 compounds were measured (“NF-kB SEAP reporter activity, fold change vs agonist alone”: median about 0.99, highest 2% from about 2.6 on). This is one part of the list.

Tests used:
RAW-Dual [1] = test: NF-kB SEAP reporter activity, fold change vs agonist alone; cytotoxicity flag (confluency mask): not cytotoxic; higher = enhanced NF-kB activity
Summary of the method: (§1)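 Reporter activity is given as fold change relative to agonist-alone wells. To measure it, 50 nL of library stock was pin-tooled onto RAW-Dual macrophages (50,000 cells/well, DMEM, 384-well plates), a PRR agonist followed 1 h later, and cells stayed at 37 °C, 5% CO2. Twenty hours on, supernatant was assayed for IRF (QuantiLuc luminescence) and NF-κB (QuantiBlue, 620 nm absorbance), and wells under 70% of agonist-control IncuCyte confluency in both mask sets were marked cytotoxic.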

RAW-Dual [2] = test: NF-kB SEAP reporter activity, fold change vs agonist alone; higher = enhanced NF-kB activity
Summary of the method: as §1

RAW-Dual [3] = test: NF-kB SEAP reporter activity, fold change vs agonist alone; cytotoxicity flag (confluency mask): cytotoxic (confluency <70% of control); higher = enhanced NF-kB activity
Summary of the method: as §1

[4] = agonist: ODN 1826 (TLR9) 0.5 ug/mL
[5] = agonist: Pam2CSK4 (TLR2/6) 0.1 ug/mL
[6] = agonist: Pam3CSK4 (TLR2/1) 0.1 ug/mL
[7] = library stock concentration (final ~1000-fold dilution): 10 mM, cytotoxicity flag (confluency mask): not cytotoxic, agonist: Imiquimod (TLR7) […]
[8] = library stock concentration (final ~1000-fold dilution): 10 mM, cytotoxicity flag (confluency mask): not cytotoxic, agonist: MPLA (TLR4) […]

Cc1nn(C)c(COc2ccc(N3CCN(S(=O)(=O)N(C)C)CC3)cc2)c1-c1cccc2c(CCCOc3cccc4ccccc34)c(C(=O)O)n(CCN3CCOCC3)c12 (library stock concentration (final ~1000-fold dilution): 2 mM)
NF-kB SEAP reporter activity (RAW-Dual [1]; agonist: LPS (TLR4) 0.1 ug/mL): 1.01
NF-kB SEAP reporter activity (RAW-Dual [1]; [4]): 1.15
NF-kB SEAP reporter activity (RAW-Dual [1]; [5]): 1.15
NF-kB SEAP reporter activity (RAW-Dual [1]; [6]): 0.95

Cc1nn(C)c(COc2ccc(N3CCN(S(=O)(=O)N(C)C)CC3)cc2)c1-c1cccc2c(CCCOc3cccc4ccccc34)c(C(=O)O)n(CCN3CCOCC3)c12
NF-kB SEAP reporter activity (RAW-Dual [2]; library stock concentration (final ~1000-fold dilution): 2 mM, cytotoxicity flag (confluency mask): not cytotoxic, agonist: Imiquimod (TLR7) […]): 0.932
NF-kB SEAP reporter activity (RAW-Dual [2]; library stock concentration (final ~1000-fold dilution): 2 mM, cytotoxicity flag (confluency mask): not cytotoxic, agonist: MPLA (TLR4) […]): 1.07

N[C@@H](C=O)[C@@H](O)[C@H](O)[C@H](O)CO
NF-kB SEAP reporter activity (RAW-Dual [2]; [7]): 0.969
NF-kB SEAP reporter activity (RAW-Dual [2]; [8]): 1.05

N[C@@H](C=O)[C@@H](O)[C@H](O)[C@H](O)CO (library stock concentration (final ~1000-fold dilution): 10 mM)
NF-kB SEAP reporter activity (RAW-Dual [1]; agonist: LPS (TLR4) 0.1 ug/mL): 0.651
NF-kB SEAP reporter activity (RAW-Dual [1]; [4]): 0.78
NF-kB SEAP reporter activity (RAW-Dual [1]; [5]): 0.49
NF-kB SEAP reporter activity (RAW-Dual [1]; [6]): 0.508

CC1=CC(=O)c2ccccc2C1=O (library stock concentration (final ~1000-fold dilution): 10 mM)
NF-kB SEAP reporter activity (RAW-Dual [3]; agonist: LPS (TLR4) 0.1 ug/mL): 0.204
NF-kB SEAP reporter activity (RAW-Dual [3]; [4]): 0.152
NF-kB SEAP reporter activity (RAW-Dual [3]; [5]): 0.282
NF-kB SEAP reporter activity (RAW-Dual [3]; [6]): 0.151

CC1=CC(=O)c2ccccc2C1=O
NF-kB SEAP reporter activity (RAW-Dual [2]; library stock concentration (final ~1000-fold dilution): 10 mM, cytotoxicity flag (confluency mask): cytotoxic (confluency <70% of control), agonist: Imiquimod (TLR7) […]): 0.148
NF-kB SEAP reporter activity (RAW-Dual [2]; library stock concentration (final ~1000-fold dilution): 10 mM, cytotoxicity flag (confluency mask): cytotoxic (confluency <70% of control), agonist: MPLA (TLR4) […]): 0.147

CC(O)C1C(=O)N2C(C(=O)O)=C(SCCNC=N)CC12.O (configuration not stated)
NF-kB SEAP reporter activity (RAW-Dual [2]; library stock concentration (final ~1000-fold dilution): 10 mM water, cytotoxicity flag (confluency mask): not cytotoxic, agonist: Imiquimod (TLR7) […]): 0.896
NF-kB SEAP reporter activity (RAW-Dual [2]; library stock concentration (final ~1000-fold dilution): 10 mM water, cytotoxicity flag (confluency mask): not cytotoxic, agonist: MPLA (TLR4) […]): 1.02

CC(O)C1C(=O)N2C(C(=O)O)=C(SCCNC=N)CC12.O (configuration not stated) (library stock concentration (final ~1000-fold dilution): 10 mM water)
NF-kB SEAP reporter activity (RAW-Dual [1]; agonist: LPS (TLR4) 0.1 ug/mL): 1.41
NF-kB SEAP reporter activity (RAW-Dual [1]; [4]): 1.16
NF-kB SEAP reporter activity (RAW-Dual [1]; [5]): 1.23
NF-kB SEAP reporter activity (RAW-Dual [1]; [6]): 1.07

CCCc1nc2c(C)cc(-c3nc4ccccc4n3C)cc2n1Cc1ccc(-c2ccccc2C(=O)O)cc1
NF-kB SEAP reporter activity (RAW-Dual [2]; [7]): 1
NF-kB SEAP reporter activity (RAW-Dual [2]; [8]): 0.78

CCCc1nc2c(C)cc(-c3nc4ccccc4n3C)cc2n1Cc1ccc(-c2ccccc2C(=O)O)cc1 (library stock concentration (final ~1000-fold dilution): 10 mM)
NF-kB SEAP reporter activity (RAW-Dual [1]; agonist: LPS (TLR4) 0.1 ug/mL): 0.995
NF-kB SEAP reporter activity (RAW-Dual [1]; [4]): 1.07
NF-kB SEAP reporter activity (RAW-Dual [1]; [5]): 0.68
NF-kB SEAP reporter activity (RAW-Dual [1]; [6]): 0.76

CCc1c2c(nc3ccc(OC(=O)N4CCC(N5CCCCC5)CC4)cc13)-c1cc3c(c(=O)n1C2)COC(=O)C3(O)CC.Cl.O.O.O (configuration not stated)
NF-kB SEAP reporter activity (RAW-Dual [2]; [7]): 1.02
NF-kB SEAP reporter activity (RAW-Dual [2]; [8]): 1.02

CCc1c2c(nc3ccc(OC(=O)N4CCC(N5CCCCC5)CC4)cc13)-c1cc3c(c(=O)n1C2)COC(=O)C3(O)CC.Cl.O.O.O (configuration not stated) (library stock concentration (final ~1000-fold dilution): 10 mM)
NF-kB SEAP reporter activity (RAW-Dual [1]; agonist: LPS (TLR4) 0.1 ug/mL): 1.02
NF-kB SEAP reporter activity (RAW-Dual [1]; [4]): 0.787
NF-kB SEAP reporter activity (RAW-Dual [1]; [5]): 1.03
NF-kB SEAP reporter activity (RAW-Dual [1]; [6]): 1.18

O=c1cc(N2CCOCC2)oc2c(-c3ccc4c(c3)OCCO4)csc12
NF-kB SEAP reporter activity (RAW-Dual [2]; [7]): 1.57
NF-kB SEAP reporter activity (RAW-Dual [2]; [8]): 2.36

O=c1cc(N2CCOCC2)oc2c(-c3ccc4c(c3)OCCO4)csc12 (library stock concentration (final ~1000-fold dilution): 10 mM)
NF-kB SEAP reporter activity (RAW-Dual [1]; agonist: LPS (TLR4) 0.1 ug/mL): 6.86
NF-kB SEAP reporter activity (RAW-Dual [1]; [4]): 2.26
NF-kB SEAP reporter activity (RAW-Dual [1]; [5]): 0.957
NF-kB SEAP reporter activity (RAW-Dual [1]; [6]): 2.84

COC(=O)C1C(O)CCC2CN3CCc4c([nH]c5ccccc45)C3CC21.Cl (configuration not stated)
NF-kB SEAP reporter activity (RAW-Dual [2]; [8]): 0.915

COC(=O)C1C(O)CCC2CN3CCc4c([nH]c5ccccc45)C3CC21.Cl (configuration not stated) (library stock concentration (final ~1000-fold dilution): 10 mM)
NF-kB SEAP reporter activity (RAW-Dual [1]; agonist: LPS (TLR4) 0.1 ug/mL): 0.84
NF-kB SEAP reporter activity (RAW-Dual [1]; [4]): 0.615
NF-kB SEAP reporter activity (RAW-Dual [1]; [5]): 0.997
NF-kB SEAP reporter activity (RAW-Dual [1]; [6]): 1.01
